What is called pIC50 is the negative decadic logarithm of the IC50, by convention in mol/L.

pIC50: −log10 of the molar value.

UniProt O14744, sequence (O14744 whole entry): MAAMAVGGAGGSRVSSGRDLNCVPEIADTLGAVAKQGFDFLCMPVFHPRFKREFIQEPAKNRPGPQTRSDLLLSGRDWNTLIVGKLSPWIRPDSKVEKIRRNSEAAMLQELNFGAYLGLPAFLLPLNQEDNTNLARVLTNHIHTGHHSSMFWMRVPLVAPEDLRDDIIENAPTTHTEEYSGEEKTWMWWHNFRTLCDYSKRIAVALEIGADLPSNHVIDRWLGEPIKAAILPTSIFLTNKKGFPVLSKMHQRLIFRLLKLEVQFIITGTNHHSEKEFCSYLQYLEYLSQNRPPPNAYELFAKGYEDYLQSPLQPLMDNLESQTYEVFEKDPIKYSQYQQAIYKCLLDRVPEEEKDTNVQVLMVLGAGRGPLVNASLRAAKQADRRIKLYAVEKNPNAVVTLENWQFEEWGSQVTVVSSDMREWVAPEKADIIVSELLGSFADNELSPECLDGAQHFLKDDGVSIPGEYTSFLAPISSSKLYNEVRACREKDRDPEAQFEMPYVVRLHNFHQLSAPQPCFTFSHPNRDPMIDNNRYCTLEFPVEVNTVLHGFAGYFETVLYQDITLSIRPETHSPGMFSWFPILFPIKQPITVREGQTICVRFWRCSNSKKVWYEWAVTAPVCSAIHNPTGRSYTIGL
UniProt O14744, sequence (Q9BQA1 whole entry partner): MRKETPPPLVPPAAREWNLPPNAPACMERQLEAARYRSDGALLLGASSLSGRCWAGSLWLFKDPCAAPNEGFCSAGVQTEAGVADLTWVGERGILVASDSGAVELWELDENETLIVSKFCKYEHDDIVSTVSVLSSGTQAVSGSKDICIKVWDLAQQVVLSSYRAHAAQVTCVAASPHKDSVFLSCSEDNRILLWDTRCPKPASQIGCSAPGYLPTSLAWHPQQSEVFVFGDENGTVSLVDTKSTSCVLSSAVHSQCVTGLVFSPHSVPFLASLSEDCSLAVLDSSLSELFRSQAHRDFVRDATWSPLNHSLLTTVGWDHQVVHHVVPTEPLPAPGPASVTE

For the experiment, the target named is PRMT5/MEP50 Complex (Homo sapiens (Human), UniProt O14744). As to the kind of experiment: PRMT5 inhibition based on TR-FRET assay. It counts as biochemical. The following applies: 32 nM PRMT5:MEP50, 50 nM Histone-H4 peptide, 1 μM SAM. The text has this: PRMT5 Inhibition Based on TR-FRET Assay:
Protein arginine methyltransferase 5 (PRMT5) is a type II arginine methyltransferase that catalyze mono- and symmetric demethylation on arginine residues of histone or non-histone proteins in presence of S-adenosylmethionine (AdoMet or SAM) a cofactor responsible for donating the methyl group. PRMT5 is reported to be overexpressed in several human cancers. To identify compounds that inhibit the PRMT5 and decrease its activity, a TR-FRET based assay has been established. Time-resolved fluorescence resonance energy transfer (TR-FRET) HTS assays are homogeneous proximity assays where the interaction of two dye-labeled binding partners is detected by the energy transfer between a donor and an acceptor dye and the subsequent light emission by the acceptor dye. PRMT5 catalyzes Histone H4 peptide which is biotin tagged to the Lysine amino acid at carboxyl end, in presence of S-adenosyl-1-methionine (SAM) to methylate the peptide. The antibody specific to mono methylated H4 peptide (H4R3) with Ig conjugate binds to the methylated peptide, indirectly binding to the Europium lanthanide. SureLight Allophycocyanin-Streptavidin binds to the biotin tag of the peptide, therefore accepting the energy transferred from the Europium lanthanide. This energy transfer between Europium to SureLight Allophycocyanin is a direct measure of the activity/inhibition of the PRMT5 enzyme.
Assay buffer: 20 mM BICINE (pH 7.6), 25 mM NaCl, 2 mM DTT, 0.01% Tween-20 and 0.01% BSA.
The compound dilutions were prepared as 7.5% DMSO stock solutions in assay buffer. To 2 μL (7.5×) of test compound, 5 μL of PRMT5 enzyme prepared in assay buffer (Final concentration of 32 nM in 15 μL reaction volume) was added and allowed for 30 minutes pre-incubation time in a white polystyrene 384-well plate at room temperature. […] The plates were then read on Victor-3 with Excitation at 340 nm and Emissions collected at 615 and 665 nm in TR-FRET protocol. […]
On the technique in general: Time-resolved FRET reads energy transfer from a long-lived donor to a nearby acceptor.
As for `CC1(C)CN(Cc2ccc(C#N)cc2)C(=O)N1CC(O)CN1CCc2ccccc2C1` (single isomer, unassigned) [Example 2a, 4-((3-(3-(3,4-dihydroisoquinolin-2(1H)-yl)-2-hydroxypropyl)-4,4-dimethyl-2-oxoimidazolidin-1-yl)methyl)benzonitrile], the pIC50 was 7.40.
Compound `CC1(C)CN(Cc2ccc(C#N)cc2)C(=O)N1CC(O)CN1CCc2ccccc2C1` (single isomer, unassigned) [Example 2b, 4-((3-(3-(3,4-dihydroisoquinolin-2(1H)-yl)-2-hydroxypropyl)-4,4-dimethyl-2-oxoimidazolidin-1-y1)methyl)benzonitrile] showed a pIC50 of 6.74.
Compound `CN(C)c1ccc(CN2CCN(CC(O)CN3CCc4ccccc4C3)C2=O)cc1` (stereo not drawn) [Example 3, 1-(3-(3,4-dihydroisoquinolin-2(1H)-yl)-2-hydroxypropyl)-3-(4-(dimethylamino)benzyl)imidazolidin-2-one] showed a negative logarithm of the IC50 (pIC50) of 6.46. Compared with the last compound, the pIC50 is 0.28 log units lower.

Values taken from US11365205B2 (Aurigene Discovery Technologies Limited, priority 2018, dated 2022).
